In PubChem BioAssay AID651820 (National Center for Advancing Translational Sciences (NCATS), 2012):
The campaign covered roughly 340,000 compounds. About 12,000 (3.5%) were called active. The shares of active, inactive and inconclusive entries below differ from those in the screen. Calls come from the whole dose curve; as a rule, active = well fitted inhibition curve with a large enough effect; inconclusive = small, poorly fitted or top-dose-only effect, or another doubt; inactive = no such curve, though single readings can be large or run the other way. Potencies of inconclusive entries are left out as doubtful fits.

Assay: qHTS Assay for Inhibitors of Hepatitis C Virus (HCV)
Details: Huh7.5.1 HCVcc-Cre (HCVcc is cell-culture hepatitis C virus) infection, luciferase reporter, 44 h; activity change, negative = inhibition: at 41.8 µM (top of the series)
Method in brief: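 HCVcc-Cre virus at an moi near 0.5 was added right after compound to cells cultured 4 h from seeding (1,000 cells/well). Luciferase activity was determined 44 h later, 15 min after substrate addition at RT.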
% is set by controls: 0 for no effect and ±100 for the full control effect; potency is the fitted concentration of half-maximal effect; tags give direction and shape of the fitted curve.

| SMILES | Potency | activity change, negative = inhibition |
| --- | --- | --- |
| O=C1CC(N2CCN(c3ccccn3)CC2)C(=O)N1CC(c1ccccc1)c1ccccc1 (centres undefined) | inconclusive [inhibitor, single point] | – |
| CC(C)Oc1cccc(C(=O)C2CCCN(Cc3cnn(C(C)C)c3)C2)c1 (centres undefined) | inconclusive [inhibitor, single point] | – |
| COc1cc(S(=O)(=O)N2CC(=O)Nc3ccccc32)ccc1NC(C)=O | – | inactive: -8.72% |
| N#CC1(c2ccccc2)CCN(C2CC(=O)N(c3cccc(F)c3)C2=O)CC1 (centres undefined) | – | inactive: 19.8% |
| CC(C)n1nnnc1SCC(=O)N1N=C(c2cccs2)CC1c1cccs1 (centres undefined) | inconclusive [inhibitor, single point] | – |
| O=C(COC(=O)c1cc([N+](=O)[O-])ccc1N1CCOCC1)c1ccccc1 | inconclusive [inhibitor, full curve, poor fit] | – |
| COc1cc(C(=O)NCCCN2CCCC2=O)cc(Br)c1OCc1ccccc1 | inconclusive [inhibitor, single point] | – |
| CCC(C)c1ccc(NC(=S)Nc2ccc(OC)cc2C)cc1 (centres undefined) | inconclusive [inhibitor, partial curve] | – |
| CCOC(=O)C[n+]1c(C)sc2ccc(OC)cc21 | – | inactive: 11.8% |
| COc1ccc(CCNC(=O)c2ccc(Cl)c(S(=O)(=O)N3CCCC3)c2)cc1 | active: 11.2 µM | – |
| CC(C)CC1C(=O)N(Cc2cn(CC3CCCCC3)nn2)CCS(=O)(=O)N1Cc1ccc(-c2cccc(C#N)c2)cc1 (centres undefined) | inconclusive [inhibitor, full curve, poor fit] | – |
| Fc1cccc(Cl)c1CNC(c1ccccc1)c1ccccc1 | inconclusive [inhibitor, single point] | – |
| Cn1c(SCC(=O)Nc2nccs2)nnc1C12CC3CC(CC(C3)C1)C2 | – | inactive: -19.2% |
| O=C(NCCCN1CCOCC1)c1ccc(Br)cc1 | – | inactive: 1.94% |
| CCC(C)Nc1nc(-c2cccc(OC)c2O)nc2ccccc12 (centres undefined) | active: 2.51 µM | – |
| CN1CCN(c2oc(COc3ccc(-c4ccccc4)cc3)nc2C#N)CC1 | active: 5.01 µM | – |
| CCOc1ccc(C(=O)N2CCc3cc(OC)c(OC)cc3C2)cc1OCC | inconclusive [inhibitor, partial curve] | – |
| Cc1cccc(CN2C(=O)CSc3ccc(C(=O)NC4CC4)cc32)c1 | inconclusive [inhibitor, partial curve] | – |
| CC(C)n1ncc2c(C(=O)N3CCN(c4ccccc4)CC3)cc(-c3ccccc3)nc21 | inconclusive [inhibitor, single point] | – |
| O=C(O/N=C\c1ccc(N2CCCCC2)c([N+](=O)[O-])c1)c1c(F)cccc1F | – | inactive: -23.2% |
| CCOc1ccc(CCNC(=O)CN2C(=O)NC3(CCCc4ccccc43)C2=O)cc1OCC (centres undefined) | inconclusive [inhibitor, single point] | – |
| CCN(CC)S(=O)(=O)c1ccc(Cl)c(C(=O)Nc2cccnc2)c1 | inconclusive [inhibitor, partial curve] | – |

| SMILES | Potency | activity change, negative = inhibition |
| --- | --- | --- |
| O=C(NNS(=O)(=O)c1ccc([N+](=O)[O-])cc1)c1ccc([N+](=O)[O-])cc1 | – | inactive: 6.04% |
| COc1ccc(CCNc2oc(-c3ccc(C)cc3)nc2C#N)cc1OC | inconclusive [inhibitor, single point] | – |
| CC1=CC(O)C(O)C2(C)C1CC1OC(=O)CC3C(C)C(O)C(=O)C2C13CO (centres undefined) | inconclusive [inhibitor, single point] | – |
| COc1cc(N2CCCC2)ccc1C=O | inconclusive [inhibitor, single point] | – |
| CC[n+]1c(/C=C/C=C/N(C(C)=O)c2ccccc2)sc2cc(OC)ccc21 | inconclusive [inhibitor, partial curve] | – |
| CCOc1ccc(OCC)c(NC(=O)CC2Oc3ccccc3NC2=O)c1 (centres undefined) | inconclusive [inhibitor, single point] | – |
| Cc1oc2ccc(OC(=O)COc3c(F)c(F)c(F)c(F)c3F)cc2c1C(=O)OC(C)C | inconclusive [inhibitor, single point] | – |
| Cc1cc(C)c2c(N)c(C(=O)Nc3cccc(C)c3C)sc2n1 | – | inactive: -12.2% |
| Cc1nnc2ccc(-c3cccc(NS(=O)(=O)c4ccccc4Cl)c3)nn12 | – | inactive: 4.13% |
| CCn1cc(CCCC(=O)NCc2cccc(OC)c2)c2ccccc21 | inconclusive [inhibitor, partial curve] | – |
| CCC(=O)NC(=S)Nc1cc(C(=O)O)ccc1OC | inconclusive [inhibitor, single point] | – |
| O=C(Nc1ccccn1)c1cc(-c2cccnc2)nc2ccc(Br)cc12 | – | inactive: 8.46% |
| Cc1ccc(CSCC(=O)NCc2ccc3c(c2)OCO3)cc1 | – | inactive: 15.4% |
| COc1ccc(S(=O)(=O)N2CCCC(C(=O)NCc3cccnc3)C2)cc1OC (centres undefined) | inconclusive [inhibitor, partial curve] | – |
| COc1ccc(-n2ccc(-c3nn(-c4cccc(C(F)(F)F)c4)ccc3=O)n2)cc1 | inconclusive [inhibitor, single point] | – |
| CCOc1ccc(C(=O)NC(=S)Nc2ccc(N3CCOCC3)c(Cl)c2)cc1[N+](=O)[O-] | inconclusive [inhibitor, full curve] | – |
| C=C1C(=O)C=C[C@]2(C)C[C@@H]3OC(=O)[C@](C)(O)[C@H]3C[C@@H]12 | inconclusive [inhibitor, single point] | – |
| Cc1cc(C(=O)N(NC(=O)C(C)C)c2ccccc2)cs1 | – | inactive: -14.1% |
| COc1cccc(CNC(=O)CCNS(=O)(=O)c2ccc(C)cc2)c1 | inconclusive [inhibitor, single point] | – |
| Cc1ccccc1C(=O)NNC(=O)Cc1cccc2ccccc12 | inconclusive [inhibitor, single point] | – |
| O=C(c1n[nH]c2ccccc12)N1CCN(S(=O)(=O)c2ccccc2)CC1 | – | inactive: 12.2% |
| COc1ccc(C(=O)NCCCc2nc3ccccc3n2Cc2ccccc2C)cc1OC | inconclusive [inhibitor, single point] | – |
